# Laboratory results published in a collection of fitness landscapes (doi:10.1016/j.celrep.2020.107928).
# Whole data set: some 81,000 sequences, median “one-hybrid fitness for binding NBS DNA” near -0.1, cut for the highest 2% near 0.36. The list shows a part of the results.
# B1: Caulobacter ParB omega fusion; a variant is named by its letters at X, in order, B8GW30 (parent)
# chain: MESVVVGEPGMSEGRRGLGRGLSALLGEVDAAPAQAPGEQLGGSREAPIEILQRNPDQPRRTFREEDLEDLSNSIREKGVLQPILVRPSPDTAGEYQIVAGERAWRAAQRAGLKTVPIMVRELDDLAVLEIGIIENVQRADLNVLEEALSYKVLMEKFERTQENIAQTIGKSXSHVANXMRLLXLPDEVQSYLVSGELTAXHARAIAAAADPVALAKQIIEGGLSVRETEALARKAPNLSAGKSKGGRPPRVKDTDTQALESDLSSVLGLDVSIDHRGSTGTLTITYATLEQLDDLCNRLTRGI
# Variants of: B1
# Experiment: one-hybrid fitness for binding NBS DNA (the Noc-binding site; scaled: cognate 1, non-cognate 0); higher = stronger binding
# Conditions: with NBS DNA site
# Procedure, shortened: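 On M9-minus-histidine containing 0.1 mM IPTG and 5 mM 3-AT, E. coli USO cells with a HIS3 reporter, site 19 bp from the promoter, grew 48 hours at 37°C to select Caulobacter ParB libraries randomised at four specificity codons. Plasmids from before and after were Illumina-sequenced, with three replicate libraries pooled and variants under 10 reads left out. Fitness is the log change in variant-to-wild-type read ratio, rescaled against cognate and non-cognate.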
row,Variant,one-hybrid fitness for binding NBS DNA
1,NWHQ,≤ 0.2
2,HSYL,≤ 0.2
3,WSSR,≤ 0.2
4,IVMF,≤ 0.2
5,PDHK,≤ 0.2
6,LTCS,≤ 0.2
7,KREF,≤ 0.2
8,CPPA,≤ 0.2
9,DSAV,≤ 0.2
10,RPGN,≤ 0.2
11,CTDV,≤ 0.2
12,LKDV,≤ 0.2
13,DTMC,≤ 0.2
14,HACN,≤ 0.2
15,FETN,≤ 0.2
16,ANFG,≤ 0.2
17,AHHK,≤ 0.2
18,VMAE,≤ 0.2
19,RLAV,≤ 0.2
20,ASAY,≤ 0.2
21,YLQF,≤ 0.2
22,LSAS,≤ 0.2
23,VYRN,≤ 0.2
24,PSES,≤ 0.2
25,TNTH,≤ 0.2
26,TKLW,≤ 0.2

row,Variant,one-hybrid fitness for binding NBS DNA
1,HAQF,≤ 0.2
2,MKHG,≤ 0.2
3,WGTV,≤ 0.2
4,TALF,≤ 0.2
5,PTQF,≤ 0.2
6,RMEI,≤ 0.2
7,ATWG,≤ 0.2
8,MNAS,≤ 0.2
9,FWSC,≤ 0.2
10,MKIR,≤ 0.2
11,TEKL,≤ 0.2
12,LQRG,≤ 0.2
13,QPAW,≤ 0.2
14,DRTS,≤ 0.2
15,GLLW,≤ 0.2
16,QQQS,0.428
17,RCCS,0.46
18,ATTS,≤ 0.2
19,RGQS,≤ 0.2
20,FIER,≤ 0.2
21,ECPE,≤ 0.2
22,QWQI,≤ 0.2
23,EGYS,≤ 0.2
24,FTCC,≤ 0.2
25,FSRA,≤ 0.2
26,DRCG,≤ 0.2

row,Variant,one-hybrid fitness for binding NBS DNA
1,HKYC,≤ 0.2
2,EFAL,≤ 0.2
3,QAYG,≤ 0.2
4,QFLA,≤ 0.2
5,ERSP,≤ 0.2
6,IHST,≤ 0.2
7,YPQG,≤ 0.2
8,RSVH,≤ 0.2
9,PPGG,≤ 0.2
10,GPWL,≤ 0.2
11,KRPT,0.305
12,NPWG,≤ 0.2
13,KTPS,≤ 0.2
14,TGSD,≤ 0.2
15,MNLS,≤ 0.2
16,WVDG,≤ 0.2
17,RSPT,≤ 0.2
18,PMMD,≤ 0.2
19,PSMG,≤ 0.2
20,LLDV,≤ 0.2
21,IVKL,≤ 0.2
22,CVRG,≤ 0.2
23,VIMG,≤ 0.2
24,VSAI,≤ 0.2
25,VWMR,≤ 0.2
26,GRPP,≤ 0.2

row,Variant,one-hybrid fitness for binding NBS DNA
1,HVTC,≤ 0.2
2,SPAE,≤ 0.2
3,CLTA,≤ 0.2
4,FDVL,≤ 0.2
5,LDMC,≤ 0.2
6,PLYD,≤ 0.2
7,QNDG,≤ 0.2
8,PTNV,≤ 0.2
9,PFGG,≤ 0.2
10,YYAT,≤ 0.2
11,LNHD,≤ 0.2
12,YCPR,≤ 0.2
13,PRCV,≤ 0.2
14,SLCI,≤ 0.2
15,SELL,≤ 0.2
16,GTMF,≤ 0.2
17,LRLM,≤ 0.2
18,EPRG,≤ 0.2
19,KENS,≤ 0.2
20,LWIT,≤ 0.2
21,HGNT,≤ 0.2
22,DAQQ,≤ 0.2
23,NFGC,≤ 0.2
24,RITW,≤ 0.2
25,VARK,≤ 0.2
26,MAPR,≤ 0.2

row,Variant,one-hybrid fitness for binding NBS DNA
1,MLSC,≤ 0.2
2,QRFI,≤ 0.2
3,GPFR,≤ 0.2
4,RMEG,≤ 0.2
5,PHKR,0.22
6,HYTG,≤ 0.2
7,RCNN,≤ 0.2
8,HTFG,≤ 0.2
9,RMHC,≤ 0.2
10,AYVW,≤ 0.2
11,TNTE,≤ 0.2
12,EAHE,≤ 0.2
13,CNLA,≤ 0.2
14,AQWT,≤ 0.2
15,SLSG,≤ 0.2
16,PGPA,≤ 0.2
17,SGGR,≤ 0.2
18,LNQT,≤ 0.2
19,QKFR,0.435
20,WHGS,≤ 0.2
21,RDCC,≤ 0.2
22,VNDL,≤ 0.2
23,PTSN,≤ 0.2
24,WEHR,≤ 0.2
25,WSWD,≤ 0.2
26,TITK,≤ 0.2

row,Variant,one-hybrid fitness for binding NBS DNA
1,MDTS,≤ 0.2
2,YVLC,≤ 0.2
3,VVSG,≤ 0.2
4,DSTW,≤ 0.2
5,TDEP,≤ 0.2
6,SPTY,≤ 0.2
7,GSHE,≤ 0.2
8,LSWA,≤ 0.2
9,ACIS,≤ 0.2
10,RFEG,≤ 0.2
11,PFTD,≤ 0.2
12,LDSS,≤ 0.2
13,LCLR,≤ 0.2
14,LFKT,≤ 0.2
15,YSPS,≤ 0.2
16,ESES,≤ 0.2
17,EMLV,≤ 0.2
18,DMCT,≤ 0.2
19,ESCV,≤ 0.2
20,YFSG,≤ 0.2
21,GNCN,≤ 0.2
22,PKSY,≤ 0.2
23,SYQA,≤ 0.2
